# Source: PubChem BioAssay AID938 (National Center for Advancing Translational Sciences (NCATS), 2007)
# In all, about 73,000 compounds went through this assay and about 1,800 (2.5%) were called active. The shares of active, inactive and inconclusive entries below differ from those in the screen. Calls follow the shape of the dose curve; as a rule, active = well fitted activation curve with a large enough effect; inconclusive = small, poorly fitted or top-dose-only effect; inactive = no such curve, though single readings can be large or run the other way. Potencies of inconclusive entries are left out as doubtful fits.
# Experiment: qHTS Assay for Agonists of the Thyroid Stimulating Hormone Receptor: Activators of Intracellular cAMP Concentrations in Parental HEK 293; also: nearly all actives have a fitted effect of over 55% in size; as to activation: % of control where 0% means no effect
# Details: parental HEK293 CNG cAMP sensor, membrane potential fluorescence; activation: at 57.1 µM (top of the series) unless noted
# In short: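 Parental HEK 293 cells stably expressing a modified CNG channel (no TSHR) report cAMP rise as membrane depolarization. Membrane potential dye with 100 uM RO 20-1724 was loaded for 60 min at room temperature, then compound added for 30 min; fluorescence read at 590 nm.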
# Potency is read from the fitted curve at half-maximal effect; tags tell the direction and shape of the fitted curve.
SMILES,Potency,activation
COc1ccc(-c2nc(-c3ccc(NC(=O)c4ccc(Br)o4)cc3)no2)cc1OC,"inconclusive [activator, partial curve]",–
O=C(c1cc(C(F)(F)F)cc(C(F)(F)F)c1)N1CCC[C@@]2(CCN(c3ccccn3)C2)C1,active: 15.8 µM,–
O=C(c1coc2ccc(O)c(CN3CCOCC3)c12)C1CC1,"inconclusive [activator, single point]",–
N#CC1=C(SCc2ccccc2)NC(=O)C(C#N)C12CCCC2 (centres undefined),active: 31.6 µM,–
O=C1CCCC2=C1C(c1ccco1)Nc1ccc(C(=O)c3ccccc3)cc1N2 (centres undefined),–,inactive: -3.36%
Cc1ccc2c(c1)cc(CN(Cc1ccc3c(c1)OCO3)C(=O)c1cnccn1)c1nnnn12,–,inactive: 18.1%
Oc1cccc2ccc(Nc3ccccn3)nc12,–,inactive: -78.7%
Cc1cc(S(=O)(=O)Nc2ccccc2C)ccc1F,"inconclusive [activator, single point]",–
CC(C)CCNc1ncnc2c1nnn2Cc1ccccc1Cl,"inconclusive [activator, partial curve]",–
CCC(CC)c1nc(NCCC(=O)O)c2ccccc2n1,"inconclusive [activator, single point]",–
CN1CCN(CC(O)COCc2ccc3c(c2)OCO3)CC1 (centres undefined),"inconclusive [activator, single point]",–
COc1ccc(CN(C(=O)Cn2nnc3ccccc32)C(C(=O)NC(C)(C)C)c2ccco2)cc1 (centres undefined),"inconclusive [activator, partial curve]",–
COC(=O)c1c(-c2ccc(F)cc2)csc1NC(=O)c1ccco1,active: 3.98 µM,–
COC(=O)c1ccc(C(NC(=O)OCc2ccccc2)/C(=C/[C@@H](C)C(=O)NC2CCCCC2)c2cccnc2)cc1 (some centres undefined),"inconclusive [activator, single point]",–
Cc1nnc(NC(=O)c2ccc3c(c2)C(=O)N(CC2CCCO2)C3=O)s1 (centres undefined),"inconclusive [activator, single point]",–
O=C(O)[C@@H]1[C@@H](C(=O)NCc2ccncc2)[C@@H]2C=C[C@@H]1O2,–,inactive: -2.04% [at 11.4 µM]
CC(C)(C)N1C(=O)[C@H]2[C@H]3[C@H](O)[C@H](O)C/C(=N/OC[C@@H](O)COCc4ccco4)[C@@H]3CC[C@@H]2C1=O,–,inactive: 8.6% [at 11.4 µM]
COc1cccc(-c2ccc3ncnc(NCc4ccccc4OC)c3c2)c1,"inconclusive [activator, full curve, poor fit]",–
COc1ccccc1CNc1ccnc(-c2ccccc2C(F)(F)F)n1,"inconclusive [activator, partial curve]",–
CN(C)c1ccccc1C(=O)c1ccccc1N(C)C,"inconclusive [activator, partial curve]",–
CCOCCCNC(=O)C1CCCN1C(=O)NC1CCCCC1 (centres undefined),"inconclusive [activator, single point]",–
O=c1cc(CO)occ1O,–,inactive: -4.32%
O=C1C2CCCN2C(c2cccc(F)c2)N1c1cccc(Cl)c1 (centres undefined),"inconclusive [activator, single point]",–

SMILES,Potency,activation
CC(C)n1c(SCC(=O)N2c3ccccc3Sc3ccccc32)nc2c1c(=O)n(C)c(=O)n2C,"inconclusive [activator, single point]",–
CCC/C=C(\CCC)C(NS(=O)(=O)c1ccc(Cl)cc1)c1ccccc1 (centres undefined),–,inactive: 19%
CCNc1ncc2ncc(=O)n(Cc3cccs3)c2n1,"inconclusive [activator, single point]",–
COCCn1c(-c2ccc(Cl)cc2)cnc1SCC(=O)NCc1cccs1,active: 10 µM,–
Cc1onc(-c2ccccc2Cl)c1C(=O)Nc1nn[nH]n1,"inconclusive [activator, single point]",–
CC(C)NC(=O)[C@H]1C[C@@H]1[C@H](NC(=O)OCc1ccccc1)c1ccccc1,"inconclusive [activator, full curve]",–
CC1=NCC[N@@+]1(CCc1ccccc1)Cc1ccccc1,–,inactive: 8.24% [at 11.4 µM]
CC1Cc2ccccc2N1C(=O)c1ccnc(C(C)(C)C)c1 (centres undefined),"inconclusive [activator, single point]",–
Cc1nc(NCc2ccccc2)c2nc(-c3ccccc3)n(CCN(C)C)c2n1,"inconclusive [activator, partial curve, poor fit]",–
CC1CN(CCC(=O)Nc2ccc3c(c2)OCO3)CC(C)O1 (centres undefined),"inconclusive [activator, single point]",–
CC(C)(C)OC(=O)NCCc1nnc(SCC(=O)c2ccc(Cl)cc2)o1,"inconclusive [activator, single point]",–
CCOC(=O)CCN1C(=O)[C@H]2[C@H]3[C@H](O)[C@H](O)C/C(=N/OCC(C)C)[C@@H]3CC[C@@H]2C1=O,–,inactive: 0.363% [at 11.4 µM]
CC(C)C12CN3CC(C(C)C)(CN(C1)C3c1ccc3c(c1)OCO3)C2=O (centres undefined),"inconclusive [activator, partial curve]",–
COc1ccc(NC(=O)c2cc(-c3cc(C)cc(C)c3O)n[nH]2)cc1Cl,"inconclusive [activator, partial curve]",–
Cc1cc2c(s1)c1cnn(Cc3ccccc3F)c(=O)c1n2C,"inconclusive [activator, single point]",–
FC(F)(F)c1ccccc1-c1cncnc1NCCN1CCOCC1,–,inactive: 9.32%
COc1ccccc1OCCn1cc(C(=O)c2ccco2)c2ccccc21,active: 25.1 µM,–
Cc1nc2ccccc2c(=O)n1NCc1cc(Br)cs1,active: 15.8 µM,–
CCN1CCN(CC(=O)Nc2sc3c(c2C#N)CCC(C)C3)CC1 (centres undefined),"inconclusive [activator, partial curve]",–
CC(C)CC1(C(=O)NCC2CC2)C=CCN1C(=O)c1ccccc1 (centres undefined),"inconclusive [activator, partial curve]",–
COC(=O)c1c(NC(=O)c2ccoc2C)sc2c1CCC2,–,inactive: 10.5%
COCCn1c(=O)c(-c2ccc(OC)cc2)nc2cnc(N3CCNCC3)nc21,"inconclusive [activator, partial curve, poor fit]",–
Cc1ccc(B(O)O)cc1,–,inactive: -9.52%

SMILES,Potency,activation
CCN(CC)CCCNC(=O)C1CCC(=O)N(c2ccc(OC)cc2)C1c1ccc(F)cc1 (centres undefined),"inconclusive [activator, single point]",–
N#Cc1nc(-c2ccccc2)oc1N1CCCCC1,"inconclusive [activator, partial curve]",–
CN(C)CCCN1C(=O)C(=O)/C(=C(/O)c2ccc3c(c2)OCO3)C1c1cccnc1 (centres undefined),–,inactive: -0.691%
Cc1ccc(O)c(NC(=O)C2CC(c3c(F)cccc3Cl)=NO2)c1 (centres undefined),"inconclusive [activator, single point]",–
COC(=O)[C@@]1(Cc2ccc(OC)cc2)[C@H]2c3cc(C(=O)N(C)C)n(Cc4ccc(C(F)(F)F)nc4)c3C[C@H]2CN1C(=O)c1ccccc1,active: 6.31 µM,–
C/C(=C\c1ccccc1)CN1CCN(c2ccccc2)CC1,"inconclusive [activator, single point]",–
COCCNc1ncnc2ccc(-c3ccc(C(=O)N(C)C)cc3)cc12,"inconclusive [activator, full curve, poor fit]",–
CCOC(=O)c1ccc(COC(=O)c2cc(=O)[nH]c3ccccc23)o1,–,inactive: 3.05%
Cn1c(SCc2cccc3ccccc23)nnc1-c1ccco1,"inconclusive [activator, single point]",–
O=C(NCCc1cccc(F)c1)[C@@H]1CSC2c3ccccc3C(=O)N21 (some centres undefined),"inconclusive [activator, single point]",–
CC(=O)OC[C@@H]1O[C@H](CCO/N=C(\C)CCN2CCCc3nc(C)c(C)cc32)C=C[C@@H]1OC(C)=O,–,inactive: 4.4% [at 11.4 µM]
O=C(Nc1cccnc1)c1ccc(CN2CCc3ccccc3C2)cc1,"inconclusive [activator, partial curve]",–
CC(=O)Nc1ccccc1OCC(=O)c1cc(C)n(Cc2cccs2)c1C,active: 10 µM,–
COc1cc([C@H]2c3cc4c(cc3[C@@H](O[C@H]3O[C@H]5CO[C@@H](C)O[C@H]5[C@@H](O)[C@@H]3O)[C@@H]3COC(=O)[C@H]23)OCO4)cc(OC)c1O,–,inactive: 1.83% [at 25.6 µM]
COc1ccc(-n2c(Cc3cccn3C)nnc2SCC(=O)N2CCC(C)CC2)cc1,"inconclusive [activator, single point]",–
COC(=O)c1ccc(C2C3=C(Nc4nnnn42)c2ccccc2OC3)cc1 (centres undefined),active: 12.6 µM,–
Cc1c(C(=O)OCC(C)(C)CN(C)C)oc2ccccc12,–,inactive: 25.8%
COCCn1c(C)cc(C(=O)CSc2nc3ccccc3o2)c1C,"inconclusive [activator, single point]",–
Cn1c(-c2ccc(F)cc2)cnc1SCC(=O)Nc1ccccc1N1CCOCC1,"inconclusive [activator, partial curve]",–
COC(=O)CSc1nnc(-c2cccs2)n1-c1ccc(Cl)cc1,–,inactive: 22.9%
O=C(c1cccc(F)c1)N1CCC2(CCCN(c3ccccc3)C2)CC1,"inconclusive [activator, full curve]",–
O=C(c1cccc(F)c1)N1CCN(C(=O)C2CC2)CC1,–,inactive: 2.24%
c1ccc(-c2csc(Nc3nc(N4CCOCC4)nc(N4CCOCC4)n3)n2)cc1,"inconclusive [activator, single point]",–
